“And” between values parts separate entries of the source, which are not always exact repeats. Equal values may be shown once. In all, about 410,000 compounds went through this assay and about 7,200 (1.8%) were called active. Inconclusive means that the source gave no clear call. Such entries were picked first, then a sample of the others. The call rests on the fitted dose curve; in most records, active means well fitted activation curve with a large enough effect; inconclusive means small, poorly fitted or top-dose-only effect, or another doubt; inactive means no such curve, though single readings can be large or run the other way. A potency beside an inconclusive call is a rough fit, not a confirmed value.
Test: qHTS of TDP-43 Inhibitors; further: nearly all actives have a fitted effect of over 50% in size; on growth rescue (activation): % of control where 0% means no effect
Settings: TDP-43 expressing yeast growth rescue, BacTiter-Glo, 24 h; growth rescue (activation): at 46.1 µM (top of the series) unless noted
Method in brief: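 Yeast cells expressing TDP-43 under galactose induction are exposed to compounds for 24 hr at 30 deg C. BacTiter-Glo luminescence measures growth, so protective compounds score as activators.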
For `Brc1cccc(-c2nc3c4ccccc4ccn3c2Cc2ccccc2)c1`, the Potency was inconclusive: 17.8 µM [activator, partial curve]. For `CCN(C(=O)CSc1nc2cc(C(=O)O)ccc2c(=O)n1-c1ccccc1F)C1CCS(=O)(=O)C1` (stereo unspecified), the “growth rescue (activation)” value was inactive: 24.6%. In the case of `O=C(Oc1cccnc1)c1ccc([N+](=O)[O-])cc1Cl`, the Potency was inconclusive: 12.6 µM [activator, partial curve]. For `COc1ccc(NC(=O)NC(C)c2c(-n3cccc3)sc(C)c2C)cc1OC` (stereo unspecified), the “growth rescue (activation)” value was inactive: 12.6%. In the case of `CCOc1c(Cl)cc(CNc2ccc3[nH]c(=O)[nH]c3c2)cc1OC`, the Potency was inconclusive: 5.62 µM [activator, partial curve]. In the case of `Cn1c(NCc2c(O)ccc3ccccc23)nc2ccccc21`, the Potency was inconclusive: 0.562 µM [activator, full curve, poor fit]. With `CCN1C(=S)N[C@@H](CCc2ccccc2)C(C(=O)OC)=C1C` the Potency was inconclusive: 15.8 µM [activator, partial curve]. For `Cc1cccc(S(=O)(=O)Nc2ccc(S(=O)(=O)Nc3nccs3)cc2)c1`, the “growth rescue (activation)” value was inactive: -12.5%. In the case of `Cc1cccc(NC(=O)CN(C)S(=O)(=O)c2ccc3c(c2)c(=O)n(C)c(=O)n3C)c1C`, the “growth rescue (activation)” value was inactive: -8.65%. With `CCCCc1nc(NCCN)c(C#N)c2c1CSC(C)(C)C2` the Potency was inconclusive: 35.5 µM [activator, partial curve, poor fit]. With `Cc1c(Br)c(O)c(Br)c2sc(=O)oc12` the growth rescue (activation) was inconclusive: -48.3% [activator]. In the case of `Cc1ccccc1NC(=O)C1Cc2ccccc2C(=O)O1` (stereo unspecified), the Potency was inconclusive: 31.6 µM [activator, single point]. With `Cc1ccc(Cl)c(Nc2ccccc2C(=O)O)c1Cl` the Potency was inconclusive: 562 nM [activator, full curve, poor fit] and inconclusive: 282 nM [activator, full curve]. With `O=C(COc1ccccc1)Nc1nnc(-c2ccco2)o1` the Potency was inconclusive: 11.2 µM [activator, partial curve]. With `Cc1cccc(CNC(=O)Cn2nc(C)c3nn(-c4ccc(Cl)cc4)c(C)c3c2=O)c1` the “growth rescue (activation)” value was inactive: 10.7%. With `Oc1cccc(/C=N/NC(=S)Nc2cccnc2)c1O` the Potency was inconclusive: 11.2 µM [activator, partial curve]. In the case of `O=C(CSc1nnc(COc2ccccc2Cl)o1)Nc1ccccc1`, the Potency was inconclusive: 8.91 µM [activator, partial curve]. For `O=C(c1ccc2ccccc2c1)c1c[nH]cc1-c1ccccc1`, the “growth rescue (activation)” value was inactive: 6.2%. In the case of `CCc1nonc1NC(=O)COc1ccc(Cl)c(C)c1`, the “growth rescue (activation)” value was inactive: 20.2%. In the case of `Cn1c(=O)cc(OCCCC(=O)N2CCN(c3ccccc3)CC2)c2ccccc21`, the Potency was inconclusive: 10 µM [activator, partial curve]. In the case of `O=C(NCc1cccs1)c1nc(-c2cccs2)no1`, the Potency was inconclusive: 20 µM [activator, single point]. With `CCNc1nc2c(c(=O)n(C)c(=O)n2C)n1Cc1ccc(F)cc1` the “growth rescue (activation)” value was inactive: -12.4%. In the case of `CCOC(=O)Cn1nnc(-c2cc(OC)c(OC)c(OC)c2)n1`, the growth rescue (activation) was inactive: 10.9% [at 9.22 µM]. In the case of `COc1cc(OC)c(NS(=O)(=O)c2ccc3c(c2)NC(=O)CO3)cc1Cl`, the “growth rescue (activation)” value was inactive: 7.93%. In the case of `O=C(NC1CCCc2ccccc21)c1ccc2c(c1)OCO2` (stereo unspecified), the Potency was inconclusive: 25.1 µM [activator, single point]. For `Cc1c(CCC(=O)O)c(=O)oc2cc3oc4c(c3cc12)CCCC4`, the “growth rescue (activation)” value was inactive: -0.856%. In the case of `Cc1ccc(CSC2=NC(C)(C)Nc3ccccc32)c(C)c1`, the Potency was inconclusive: 11.2 µM [activator, partial curve]. For `COCCN(C(=S)Nc1ccc(C)c(C)c1)C(C)c1ccco1` (stereo unspecified), the Potency was inconclusive: 10 µM [activator, partial curve]. In the case of `Cc1cc(C)n2ncc(C(=O)NCc3ccccc3)c2n1`, the “growth rescue (activation)” value was inactive: 3.36%. For `Cc1cccc(C(c2sc3nc(-c4ccco4)nn3c2O)N2CCOCC2)c1` (stereo unspecified), the Potency was inconclusive: 6.31 µM [activator, full curve, poor fit]. For `Cc1ccc(OCC(=O)NNC(=O)C(C)Sc2ncnc3sc(C)c(C)c23)cc1` (stereo unspecified), the Potency was inconclusive: 20 µM [activator, single point]. In the case of `COc1ccc(CNS(=O)(=O)c2ccc(-c3cc(C(F)(F)F)on3)s2)cc1OC`, the “growth rescue (activation)” value was inactive: 15%. With `COc1ccc(CNC(=O)c2nn(C)c3c2CSc2ccccc2-3)cc1` the Potency was inconclusive: 11.2 µM [activator, partial curve]. For `COC(=O)c1c(C)oc2ccc(N(C(=O)c3ccncc3)S(=O)(=O)c3ccc(Br)cc3)cc12`, the Potency was inconclusive: 28.2 µM [activator, single point]. In the case of `O=C(Nc1cccc(F)c1)c1cnc2sc(N3CCCC3)nn2c1=O`, the “growth rescue (activation)” value was inactive: 22.5%. For `COc1ccc(-c2csc(-c3c(N)c(C(=O)c4ccc(OC)c(OC)c4)n4ccccc34)n2)cc1`, the “growth rescue (activation)” value was inactive: 9.93%. With `COc1c(C)cc(Br)cc1C(=O)NC(=S)NCc1ccco1` the “growth rescue (activation)” value was inactive: -11.4%. In the case of `Cc1cc(N)ccc1NC(=O)c1ccccc1`, the Potency was inconclusive: 5.01 µM [activator, partial curve, poor fit]. In the case of `O=C(/C=C/c1ccc([N+](=O)[O-])cc1)NC1CC2CCC1C2` (stereo unspecified), the Potency was inconclusive: 28.2 µM [activator, single point]. In the case of `O=C(NCCc1cccc(Cl)c1)c1cccc([N+](=O)[O-])c1`, the Potency was inconclusive: 11.2 µM [activator, partial curve]. For `COc1ccc(-c2nc3c4ccccc4ccn3c2Cc2cccc(F)c2)cc1OC`, the Potency was inconclusive: 22.4 µM [activator, single point]. With `O=C(NC1CCCC1)C(c1ccc(Cl)cc1)N(Cc1ccc(F)cc1)C(=O)CCl` (stereo unspecified) the Potency was inconclusive: 3.16 µM [activator, partial curve]. In the case of `CC(C)N(Cc1ccccc1)C(=O)COC(=O)CCC(=O)c1ccc(F)cc1`, the Potency was inconclusive: 11.2 µM [activator, partial curve]. With `Cc1ccc(C(=O)N2CCCCC2)cc1NC1=C(Cl)C(=O)N(Cc2ccccc2)C1=O` the Potency was inconclusive: 22.4 µM [activator, single point]. With `CCc1cccc(C)c1Nc1nn2c(=O)c3ccccc3nc2s1` the Potency was inconclusive: 11.2 µM [activator, partial curve]. In the case of `COc1ccc(CSc2nnnn2-c2ccc(O)cc2)cc1F`, the Potency was inconclusive: 20 µM [activator, single point]. With `Cc1cc(C)c2nc(-c3ccccc3)ccc2c1` the Potency was inconclusive: 0.316 µM [activator, full curve, poor fit]. With `Cn1c(=O)c2c(nc(N3CCCCCC3)n2Cc2cccc3ccccc23)n(C)c1=O` the Potency was inconclusive: 35.5 µM [activator, single point]. For `CC(C)(C)OC(=O)NCCc1n[nH]c(=S)o1`, the Potency was inconclusive: 2.82 µM [activator, full curve, poor fit]. For `CCOC(=O)c1ccc(N2C(=O)c3n[nH]c(-c4ccco4)c3C2c2ccccc2OC)cc1` (stereo unspecified), the Potency was inconclusive: 20 µM [activator, single point]. For `O=c1c2sc3ccccc3c2n(Cc2cccc(Cl)c2)c(=O)n1Cc1ccccc1`, the “growth rescue (activation)” value was inactive: -2.33%. For `O=C(CCC(=O)c1ccc(F)cc1)NCc1ccccc1C(F)(F)F`, the Potency was inconclusive: 31.6 µM [activator, single point]. In the case of `Cc1cccc(OCC(=O)Nc2c(C(=O)Nc3ccc(F)cc3)oc3ccccc23)c1`, the Potency was inconclusive: 3.55 µM [activator, partial curve]. With `O=C1ON=C(c2ccc(Cl)cc2)/C1=C/c1ccc(O)cc1` the Potency was inconclusive: 35.5 µM [activator, single point]. In the case of `Cc1cc2c([nH]c3ccccc32)c(C)n1`, the “growth rescue (activation)” value was inactive: 0.153%. For `CCCCNC(=O)CNC(=O)c1cccs1`, the “growth rescue (activation)” value was inactive: -15.4%. In the case of `COCCn1c(=NC(=O)c2ccc(S(=O)(=O)N3CCCc4ccccc43)cc2)sc2cc(S(C)(=O)=O)ccc21`, the “growth rescue (activation)” value was inactive: -1.22%. In the case of `CCCCn1cc2c(c1-c1ccc(Br)cc1)c(=O)n(C)c(=O)n2C`, the “growth rescue (activation)” value was inactive: -7.29%. With `CC(=O)Nc1ccc(-c2csc(Nc3cc(C)ccn3)n2)cc1` the Potency was active: 15.8 µM. In the case of `O=C(CSc1ccnc(=O)[nH]1)NCc1ccc(F)cc1`, the Potency was active: 3.16 µM. In the case of `CN(C(=O)Nc1ccc(Cl)cc1Cl)[C@H]1c2cc(Br)ccc2OC[C@H]1CO`, the Potency was inconclusive: 17.8 µM [activator, single point]. In the case of `CC(C)(C)c1cc(Cl)c(O)c(NC(=S)NC(=O)c2cccnc2)c1`, the Potency was active: 8.91 µM. For `O=[N+]([O-])c1ccc(NC2CCCC2)cc1`, the Potency was inconclusive: 17.8 µM [activator, partial curve, poor fit]. In the case of `COc1ccc(-n2ncc3c(NC(C)C)ncnc32)cc1`, the Potency was inconclusive: 10 µM [activator, partial curve]. In the case of `COCCN1C(=O)c2ccc(C(=O)Nc3nccs3)cc2C1=O`, the “growth rescue (activation)” value was inactive: -9.04%. In the case of `N/C(=N\OC(=O)c1cccc([N+](=O)[O-])c1)c1cccnc1`, the Potency was inconclusive: 12.6 µM [activator, single point]. With `CCOc1ccc(NC(=S)NN(C)C(=S)Nc2ccc(OCC)cc2)cc1` the Potency was inconclusive: 3.98 µM [activator, full curve, poor fit]. With `CC1=CC(C)(C)Nc2ccc(OC(=O)C(C)N3C(=O)c4ccccc4C3=O)cc21` (stereo unspecified) the Potency was inconclusive: 35.5 µM [activator, single point]. In the case of `Cc1ccc(CCNC(=O)C2CC(=O)N(CCc3ccc(C)cc3)C2)cc1` (stereo unspecified), the Potency was inconclusive: 35.5 µM [activator, single point]. With `Cc1cc(=O)oc2c(C)c(OCC(=O)N3CCN(c4cccc(Cl)c4)CC3)ccc12` the Potency was inconclusive: 20 µM [activator, single point]. With `COc1cc(C(C)=O)ccc1OCC(=O)Nc1ccccc1N1CCCCC1` the Potency was inconclusive: 12.6 µM [activator, partial curve].
Potency means the concentration at half of the fitted maximal effect; tags describe the fitted curve by direction and shape.
